According to PubChem BioAssay AID1963576 (National Center for Advancing Translational Sciences (NCATS), 2024):
Screen size: about 46,000 compounds; about 60 (0.1%) were called active. Inconclusive results (about 3%) are left out. Calls come from the whole dose curve; as a rule, active = well fitted inhibition curve with a large enough effect; inconclusive = small, poorly fitted or top-dose-only effect; inactive = no such curve, though single readings can be large or run the other way. The list shows a part of the results.

Assay: Primary qHTS assay for Inhibitors of ovarian cancer metastasis using an organotypic tumor microenvironment (TME) model.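 For activity change, negative = inhibition: plate controls were DMSO wells for no effect and tomatine positive control wells for full effect.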 Note: nearly all actives have a fitted effect of over 65% in size.
Conditions: SKOV3ip1-GFP adhesion/invasion on 3D omental model, fluorescence; series mostly up to 45.8 µM; activity change, negative = inhibition: at the top concentration
In short: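 qHTS, 4-pt dose (0.36-46 umol/L); SKOV3ip1-GFP, 1,200 cells/well, no FBS; primary omental fibroblast/mesothelial co-culture 48 h pre-grown; 2 h RT + 16 h 37 C; PBS wash, 4% PFA; GFP count 488/509 nm.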

Activity change, negative = inhibition, inactive:
CCCCNC(=O)c1cccc(-n2c(C)nc3cccnc32)c1 4.64%
CCCCN(CC)CCCNC(=O)Nc1sc2nc3n(c(=O)c2c1C)CCC(C)CC3 (stereo not given) -7.51%
CC(NC(=O)C1CCN(c2nc3ccccc3nc2C(F)(F)F)CC1)c1ccccc1 (stereo not given) 96.7%
Cc1c(NC(=O)Nc2ccccc2C(F)(F)F)sc2nc3n(c(=O)c12)CCC(C)CC3 (stereo not given) -6.46%
CC(C)CCNC(=O)c1cnc2sc(N3CCCCC3)nn2c1=O 1.07%
COc1ccc(N(C(=O)c2cccc(C)c2)S(=O)(=O)c2ccc(Cl)cc2)cc1 0.833%
O=C(CCCCCn1c(=O)[nH]c2ccccc2c1=O)NCc1ccccc1 17.4%
O=C(C1CCCN(S(=O)(=O)c2cccc3nsnc23)C1)N1CCN(c2ccccc2Cl)CC1 (stereo not given) -9.35%
Cc1ccc(S(=O)(=O)c2nnn3c2nc(N2CCCC2)c2sccc23)cc1 -3.4%
COc1cccc(N2CCN(c3ncnc4onc(-c5ccc(F)cc5)c34)CC2)c1 4.46%
Cc1ccc(-c2nnc3c4ccccc4c(C)nn23)cc1NC(=O)c1ccccc1Cl -2.29%
Cc1ccc(C)c(NC(=O)CSC2=Nc3ccccc3N=C(c3ccc(F)cc3)C2)c1 -1.38%
CCC(=O)N1CCc2cc(S(=O)(=O)NC(Cc3ccccc3)C(=O)Nc3cccc(OC)c3)ccc21 (stereo not given) -0.0812%
Cc1cccc(N(C)c2ccc3cc(S(=O)(=O)N4CCCC4)ccc3n2)c1 -1.01%
Cc1nc2scc(C)n2c(=O)c1S(=O)(=O)N1CCN(c2cccc(C(F)(F)F)c2)CC1 1.93%
Cc1cc(C(=O)NCc2ccc(Cl)cc2)c2c(C)nn(-c3ccccc3)c2n1 8.24%
COc1ccc(N2CC(NC(=O)c3cc4ccccc4o3)CC2=O)cc1 (stereo not given) -14.6%
CC(=O)c1cc(-c2ccccc2)n(CCC(=O)Nc2ccc(C)cc2C)c1C -0.745%
CC1Cc2cc(S(=O)(=O)NCCc3ccccc3)ccc2N1C(=O)C1CCC1 (stereo not given) 11.6%
COc1ccc(CCC(=O)NCCc2csc(-c3ccc(C(F)(F)F)cc3)n2)cc1 -8.88%
Cc1ccc2c(c1)N(C(=O)Nc1cccc(C)c1C)CCO2 -4.28%
CC1CCC(N2CC(=O)N(C3CCCCC3)C(c3ccc(F)cc3)C2=O)CC1 (stereo not given) -5.95%
CS(=O)(=O)N1CCc2cc(C(=O)N3CCN(c4ccccc4)CC3)ccc21 -14%
Cc1cc(Br)ccc1NC(=O)c1ccc(NS(=O)(=O)c2c(C)noc2C)cc1 -0.308%
CCCC1=Nc2cc(C(=O)NCCc3ccccc3)ccc2Sc2ccc(C)cc21 8.83%
COc1ccccc1NC(=O)NCc1cccn1Cc1ccccc1 2.12%
CCOc1ccc(-c2nc(SCC(=O)NC3CCCC3)c(-c3ccccc3)[nH]2)cc1OC 6.13%
COc1ccc(-c2cnn3c(C)cc(C)nc23)cc1OC 5.42%
CSc1ccc(CCNC(=O)CN2C(=O)c3cccnc3Oc3ccc(Cl)cc32)cc1 4.26%
Cc1ccc(-c2noc(CCCC(=O)NCc3ccco3)n2)cc1 0.134%
CCOc1ccc(CCNC(=O)CSc2cc(=O)n(C)c3cc(Cl)ccc23)cc1OCC 0.822%
CCCOc1ccc(C(=O)Nc2ccc(Cl)c(-c3nc4ncccc4o3)c2)cc1 0.949%
O=C(CSc1nc(-c2cccs2)nc2cc(=O)[nH]n12)Nc1ccccc1F 14.2%
COc1cc(C(=O)N2CCc3c([nH]c4ccccc34)C2c2ccc(C)cc2)cc(OC)c1OC (stereo not given) -19.1%
Nc1c(-c2nc(-c3ccc4c(c3)OCO4)cs2)c2ccccn2c1C(=O)c1ccccc1 -4.65%
Cc1ccc(NC(=O)c2c(C)oc3nc(C)nc(N4CCCC4)c23)c(C)c1 -10.4%
CC(Sc1cn(CCNC(=O)c2ccccc2F)c2ccccc12)c1ccccc1 (stereo not given) -16.7%
O=S(=O)(c1ccc(F)cc1)N(Cc1nc(-c2ccc(Cl)cc2)no1)C1CCCCC1 6.77%
Cc1ccc2c(=O)c(C(=O)c3ccc(Cl)cc3)cn(CC(=O)NC3CCCCC3)c2n1 -4.73%
COc1ccc(NC(=O)c2c(NCc3sccc3C)sc3c2CCCCC3)c(OC)c1 5.05%
COc1ccc(C)cc1NC(=O)Cn1c(=O)ccc2cc(S(=O)(=O)N3CCC(C)CC3)ccc21 -18.2%
COC(=O)C(C)n1nnc2sc(-c3ccccc3)cc2c1=O (stereo not given) -1.91%
COC(=O)c1sccc1S(=O)(=O)N(CC(=O)Nc1c(C)cccc1C)c1ccc(C)c(C)c1 3.75%
COc1ccc2c(c1)c(=O)c(S(=O)(=O)c1ccc(C)cc1)cn2Cc1ccccc1C -5.01%
O=C(CCS(=O)(=O)c1cc(Br)cc2c1N(C(=O)C1CC1)CC2)NCc1ccccc1Cl 10.2%
Cc1c(NC(=O)c2cccc3c(Cl)cccc23)cccc1-c1nc2ccccc2o1 0.634%
COc1ccc(Br)cc1C(=O)Nc1ccc(-c2nc3cc(Cl)ccc3o2)cc1 -6.02%
CC(=O)c1ccc(NC(=O)Cn2cc(S(=O)(=O)Cc3ccccc3Cl)c3ccccc32)cc1 8%
Cc1c(Cl)cccc1NC(=O)Nc1nnc(N(C)Cc2ccccc2)s1 -0.0587%
COCCCNC(=O)CSc1nc2cc3c(cc2c(=O)n1CCCC(=O)NCc1ccc(OC)cc1)OCO3 -1.59%
Cn1c(=O)c2c(nc(Oc3ccccc3)n2Cc2c(Cl)cccc2Cl)n(C)c1=O -10.2%
COc1ccc(N(CC(=O)Nc2cc(C)ccc2C)S(=O)(=O)c2ccc(OC)c(OC)c2)cc1 5.03%
O=C(COc1ccccc1[N+](=O)[O-])Nc1cccc(-c2nc3ccccc3s2)c1 0.107%
CCc1ccc(C2c3c(oc4ccc(F)cc4c3=O)C(=O)N2c2nc(C)c(C(=O)OC)s2)cc1 (stereo not given) 0.276%
O=C(Nc1ccc(F)cc1F)c1ccc2c(O)c(S(=O)(=O)c3ccc(Cl)cc3)c(=O)[nH]c2c1 0.919%
COc1cc(NC(=O)CSc2nc3nc(C)c(Cc4ccc(C)cc4)c(C)n3n2)cc(OC)c1OC 6.2%
CCOc1ccc(NC(=O)CN2C(=O)COc3ccc(S(=O)(=O)NC4CCCC4)cc32)cc1 -5.82%
O=C(COCc1cc(-c2ccc3c(c2)OCO3)on1)NCc1ccccc1Cl -5.63%
O=C(CSc1cn(CC(=O)N2CCOCC2)c2ccccc12)Nc1ccccc1 0.574%
O=C(Nc1c(C(=O)O)oc2ccccc12)c1ccc(C(F)(F)F)cc1 16%
Cc1ccccc1Cc1c(C)nc2nc(SCC(=O)NCCc3ccc(Cl)cc3)nn2c1C 12.9%
O=C(COc1ccccc1)Nc1ccccc1OCc1cc(=O)n2ccccc2n1 1.97%
CCOc1ccc(C(=O)Nc2ccc(S(=O)(=O)Nc3nc(C)cc(C)n3)cc2)cc1OC 2.9%
NC(=O)c1ccc2[nH]ccc2c1 -18.1%
COc1ccccc1OCC(=O)NCc1nc(-c2ccc(Cl)cc2)no1 -9.54%
CCOc1ccc(CCNC(=O)Cn2nc(-c3ccc(C)cc3)ccc2=O)cc1OCC -17.8%
CCN(CC)S(=O)(=O)c1ccc2c(c1)N(CC(=O)N1CCN(c3ccc(F)cc3)CC1)C(=O)CO2 -5.23%
Cc1ccc(-c2nc(CCNC(=O)C(=O)Nc3ccc(C)cc3C)cs2)cc1 -3.45%
O=C(NCCc1nc2ccccc2n1Cc1ccc(F)cc1)c1ccco1 -4.51%
COc1ccc(CNC(=O)c2ccc(CS(=O)(=O)c3ccccc3OC)o2)cc1 -4.25%

outcome, inactive:
CCOc1cc(C(=O)N2CCn3c4c(c5cc(C)ccc53)CCCC42)cc(OCC)c1OCC (stereo not given)
Fc1ccc2c(c1)-c1nc(-c3ccccc3)cc(-c3ccccc3)c1CO2
CCOC(=O)c1cc(S(=O)(=O)N2CCN(c3ccc(C)cc3C)CC2)[nH]n1
Cc1ccc2c(c1)c(N1CCCC1=O)c(C(=O)Nc1ccc(F)cc1F)n2C
CN(C)c1ccc(NC(=O)Cn2cc(S(=O)(=O)Cc3cccc(Cl)c3)c3ccccc32)cc1
COc1ccccc1CNC(=O)CCC1N=C2c3ccccc3N=C(SCc3ccc(C)cc3)N2C1=O (stereo not given)
COC(=O)c1c(NC(=O)Nc2ccc(Cl)cc2)sc(C)c1C
CCCc1nnc(NC(=O)c2cc(=O)c3cc(Cl)ccc3o2)s1
CCOc1ccc(NC(=O)/C=C\C(=O)N(c2ccc(C(C)C)cc2)C(C(=O)NCc2ccco2)c2ccc(F)cc2)cc1 (stereo not given)
COc1cccc(-c2nc(SCC(=O)NC3CCCC3)c(-c3ccccc3)[nH]2)c1
CCOc1ccc(CCNC(=O)CCc2c(C)nc3cc(-c4ccccc4OC)nn3c2C)cc1
Cc1c(-c2nsc(NC(=O)c3cccc(Cl)c3)n2)nnn1-c1ccccc1C(F)(F)F
CCCCn1c(NCc2cc(Cl)ccc2O)nc2ccccc21
CCN(CCCNC(=O)CSc1cc(=O)n(CC)c2ccccc12)c1cccc(C)c1
CCC(C(=O)Nc1ccccc1OC)n1nc(C)c2sc3ccccc3c2c1=O (stereo not given)
Cc1ccc(C)c(OCC(=O)Nc2ccc(S(=O)(=O)Nc3onc(C)c3C)cc2)c1C
COC(=O)c1ccc(NC(=O)CSc2ncc3c(n2)-c2cc(Cl)ccc2N(Cc2ccccc2)S3(=O)=O)cc1
CCOc1ccc(CCNC(=O)c2ccc(CS(=O)Cc3cccc(Cl)c3)o2)cc1 (stereo not given)
Cc1ccc(NC(=O)CCC(=O)N2CCSc3ccccc32)cc1Cl
CCC(C(=O)Nc1cc(F)ccc1F)n1nc(-c2cc(C)ccc2C)ccc1=O (stereo not given)
CCOC(=O)N1CCc2c(sc3c2c(=O)n(Cc2ccccc2)c(=O)n3CC(=O)Nc2ccc(C)c(C)c2)C1
CC1=C(C(=O)NCc2ccccc2C)C2(CCCCC2)OC1=O
Cc1c(NC(=O)C(C)(C)Oc2ccc(Cl)cc2)cccc1-c1nc2ncccc2o1
CC1=C(c2ccc(C)c(C)c2)S(=O)(=O)N(Cc2ccc(C(=O)NC(C)c3ccccc3)cc2)C1=O (stereo not given)
Cc1ccc(C)c(-c2[nH]c3c(c2-c2c(-n4cccc4)n(C)c(=O)[nH]c2=O)c(=O)[nH]c(=O)n3C)c1
